# Results taken from the supplement of paper PMC8728848.
# The other results are listed elsewhere or left out.
# What was measured:
# Assay in all cases: glycan array binding signal (z-score within array); higher = stronger binding
# Details in all cases: glycan notation: IUPAC condensed, linker removed
# [1] = target: Neu5Ac(a2-3)Gal(b1-4)GlcNAc(b1-6)GalNAc
# In short: (§1)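 Negative Z-scores can be read as non-binding. The Z-score is calculated within each array and then averaged across arrays of one protein sequence at different concentrations or buffers and across linkers. Arrays, 3228 in all, were curated from the Consortium for Functional Glycomics database and kept only where the protein sequence was available.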
# [2] = target: Neu5Ac(a2-3)Gal(b1-4)GlcNAc(b1-6)[Gal(b1-3)]GalNAc
# In short: as §1
# [3] = target: Neu5Ac(a2-3)Gal(b1-4)GlcNAc(b1-6)[Neu5Ac(a2-3)Gal(b1-3)]GalNAc
# In short: as §1
# [4] = target: Neu5Ac(a2-3)Gal(b1-4)GlcNAc6S
# In short: as §1
# [5] = target: Neu5Ac(a2-3)Gal(b1-4)[Fuc(a1-3)]GlcNAc
# In short: as §1
# [6] = target: Neu5Ac(a2-3)Gal(b1-4)[Fuc(a1-3)]GlcNAc(b1-2)Man
# In short: as §1
# [7] = target: Neu5Ac(a2-3)Gal(b1-4)[Fuc(a1-3)]GlcNAc(b1-3)Gal
# In short: as §1
# [8] = target: Neu5Ac(a2-3)Gal(b1-4)[Fuc(a1-3)]GlcNAc(b1-3)Gal(b1-4)GlcNAc
# In short: as §1
# [9] = target: Neu5Ac(a2-3)Gal(b1-4)[Fuc(a1-3)]GlcNAc(b1-3)Gal(b1-4)[Fuc(a1-3)]GlcNAc(b1-3)Gal(b1-4)[Fuc(a1-3)]GlcNAc
# In short: as §1
# [10] = target: Neu5Ac(a2-3)Gal(b1-4)[Fuc(a1-3)]GlcNAc(b1-3)GalNAc
# In short: as §1
# [11] = target: Neu5Ac(a2-3)Gal(b1-4)[Fuc(a1-3)]GlcNAc(b1-6)[Gal(b1-3)]GalNAc
# In short: as §1
# [12] = target: Neu5Ac(a2-3)Gal(b1-4)[Fuc(a1-3)]GlcNAc(b1-6)[Neu5Ac(a2-3)Gal(b1-3)]GalNAc
# In short: as §1
# [13] = target: Neu5Ac(a2-3)Gal(b1-4)[Fuc(a1-3)]GlcNAc6S
# In short: as §1
# [14] = target: Neu5Ac(a2-3)Gal6S(b1-4)GlcNAc
# In short: as §1
# [15] = target: Neu5Ac(a2-3)Gal6S(b1-4)[Fuc(a1-3)]GlcNAc
# In short: as §1
# Neu5Ac(a2-3)GalNAc = target: Neu5Ac(a2-3)GalNAc
# In short: as §1
# [16] = target: Neu5Ac(a2-3)GalNAc(b1-4)GlcNAc
# In short: as §1
# [17] = target: Neu5Ac(a2-3)[GalNAc(b1-4)]Gal(b1-4)Glc
# In short: as §1
# [18] = target: Neu5Ac(a2-3)[GalNAc(b1-4)]Gal(b1-4)GlcNAc
# In short: as §1
# [19] = target: Neu5Ac(a2-3)[GalNAc(b1-4)]Gal(b1-4)GlcNAc(b1-3)GalNAc
# In short: as §1
# [20] = target: Neu5Ac(a2-3)[Neu5Ac(a2-6)]GalNAc
# In short: as §1
# Neu5Ac(a2-6)Gal = target: Neu5Ac(a2-6)Gal
# In short: as §1
# [21] = target: Neu5Ac(a2-6)Gal(b1-3)GlcNAc(b1-3)[Gal(b1-4)GlcNAc(b1-6)]Gal(b1-4)Glc
# In short: as §1
# Neu5Ac(a2-6)Gal(b1-4)Glc = target: Neu5Ac(a2-6)Gal(b1-4)Glc
# In short: as §1
# [22] = target: Neu5Ac(a2-6)Gal(b1-4)GlcNAc
# In short: as §1
# [23] = target: Neu5Ac(a2-6)Gal(b1-4)GlcNAc(b1-2)Man
# In short: as §1
# [24] = target: Neu5Ac(a2-6)Gal(b1-4)GlcNAc(b1-2)Man(a1-3)Man(b1-4)GlcNAc(b1-4)GlcNAc
# In short: as §1
# [25] = target: Neu5Ac(a2-6)Gal(b1-4)GlcNAc(b1-2)Man(a1-3)[Gal(b1-4)GlcNAc(b1-2)Man(a1-6)]Man(b1-4)GlcNAc(b1-4)GlcNAc
# In short: as §1
# [26] = target: Neu5Ac(a2-6)Gal(b1-4)GlcNAc(b1-2)Man(a1-3)[GlcNAc(b1-2)Man(a1-6)]Man(b1-4)GlcNAc(b1-4)GlcNAc
# In short: as §1
# [27] = target: Neu5Ac(a2-6)Gal(b1-4)GlcNAc(b1-2)Man(a1-3)[GlcNAc(b1-4)][Neu5Ac(a2-6)Gal(b1-4)GlcNAc(b1-2)Man(a1-6)]Man(b1-4)GlcNAc(b1-4)GlcNAc
# In short: as §1
# [28] = target: Neu5Ac(a2-6)Gal(b1-4)GlcNAc(b1-2)Man(a1-3)[Man(a1-6)]Man(b1-4)GlcNAc(b1-4)GlcNAc
# In short: as §1
# [29] = target: Neu5Ac(a2-6)Gal(b1-4)GlcNAc(b1-2)Man(a1-3)[Neu5Ac(a2-3)Gal(b1-4)GlcNAc(b1-2)Man(a1-6)]Man(b1-4)GlcNAc(b1-4)GlcNAc
# In short: as §1
# [30] = target: Neu5Ac(a2-6)Gal(b1-4)GlcNAc(b1-2)Man(a1-3)[Neu5Ac(a2-6)Gal(b1-4)GlcNAc(b1-2)Man(a1-6)]Man(b1-4)GlcNAc(b1-4)GlcNAc
# In short: as §1
# [31] = target: Neu5Ac(a2-6)Gal(b1-4)GlcNAc(b1-2)Man(a1-3)[Neu5Ac(a2-6)Gal(b1-4)GlcNAc(b1-2)Man(a1-6)]Man(b1-4)GlcNAc(b1-4)[Fuc(a1-6)]GlcNAc
# In short: as §1
# [32] = target: Neu5Ac(a2-6)Gal(b1-4)GlcNAc(b1-2)Man(a1-6)Man(b1-4)GlcNAc(b1-4)GlcNAc
# In short: as §1
# [33] = target: Neu5Ac(a2-6)Gal(b1-4)GlcNAc(b1-2)Man(a1-6)[Gal(b1-4)GlcNAc(b1-2)Man(a1-3)]Man(b1-4)GlcNAc(b1-4)GlcNAc
# In short: as §1
# [34] = target: Neu5Ac(a2-6)Gal(b1-4)GlcNAc(b1-2)Man(a1-6)[GlcNAc(b1-2)Man(a1-3)]Man(b1-4)GlcNAc(b1-4)GlcNAc
# In short: as §1
# [35] = target: Neu5Ac(a2-6)Gal(b1-4)GlcNAc(b1-2)Man(a1-6)[Man(a1-3)]Man(b1-4)GlcNAc(b1-4)GlcNAc
# In short: as §1
# [36] = target: Neu5Ac(a2-6)Gal(b1-4)GlcNAc(b1-2)[Neu5Ac(a2-6)Gal(b1-4)GlcNAc(b1-4)]Man(a1-3)[GlcNAc(b1-4)][Neu5Ac(a2-6)Gal(b1-4)GlcNAc(b1-2)[Neu5Ac(a2-6)Gal(b1-4)GlcNAc(b1-6)]Man(a1-6)]Man(b1-4)GlcNAc(b1-4)GlcNAc
# In short: as §1
# [37] = target: Neu5Ac(a2-6)Gal(b1-4)GlcNAc(b1-2)[Neu5Ac(a2-6)Gal(b1-4)GlcNAc(b1-4)]Man(a1-3)[GlcNAc(b1-4)][Neu5Ac(a2-6)Gal(b1-4)GlcNAc(b1-4)Man(a1-6)]Man(b1-4)GlcNAc(b1-4)GlcNAc
# In short: as §1
# [38] = target: Neu5Ac(a2-6)Gal(b1-4)GlcNAc(b1-2)[Neu5Ac(a2-6)Gal(b1-4)GlcNAc(b1-6)]Man(a1-6)[Neu5Ac(a2-6)Gal(b1-4)GlcNAc(b1-2)Man(a1-3)][GlcNAc(b1-4)]Man(b1-4)GlcNAc(b1-4)GlcNAc
# In short: as §1
# [39] = target: Neu5Ac(a2-6)Gal(b1-4)GlcNAc(b1-3)Gal(b1-3)GlcNAc
# In short: as §1
# [40] = target: Neu5Ac(a2-6)Gal(b1-4)GlcNAc(b1-3)Gal(b1-4)GlcNAc
# In short: as §1
# [41] = target: Neu5Ac(a2-6)Gal(b1-4)GlcNAc(b1-3)Gal(b1-4)GlcNAc(b1-2)Man(a1-3)[Neu5Ac(a2-6)Gal(b1-4)GlcNAc(b1-3)Gal(b1-4)GlcNAc(b1-2)Man(a1-6)]GalNAc
# In short: as §1
# [42] = target: Neu5Ac(a2-6)Gal(b1-4)GlcNAc(b1-3)Gal(b1-4)GlcNAc(b1-3)Gal(b1-4)GlcNAc
# In short: as §1
binder,measurement,setting,value
Microvirin-2 (Microcystis aeruginosa) (protein) MPNFSHTCSSINYDPDSTILSAECQARDGEWLPTELRLSDHIGNIDGELQFGDQNFQETCQDCHLEFGDGEQSVWLVCTCQTMDGEWKSTQILLDSQIDNNDSQLEIGGSMPNFSHTCSSINYDPDSTILSAECQARDGEWLPTELRLSDHIGNIDGELQFGDQNFQETCQDCHLEFGDGEQSVWLVCTCQTMDGEWKSTQILLDSQIDNNDSQLEIG,glycan array binding signal (z-score),[1],-0.131
same,glycan array binding signal (z-score),[2],-0.139
same,glycan array binding signal (z-score),[3],-0.129
same,glycan array binding signal (z-score),[4],-0.146
same,glycan array binding signal (z-score),[5],-0.14
same,glycan array binding signal (z-score),[6],-0.12
same,glycan array binding signal (z-score),[7],-0.142
same,glycan array binding signal (z-score),[8],-0.108
same,glycan array binding signal (z-score),[9],-0.114
same,glycan array binding signal (z-score),[10],-0.087
same,glycan array binding signal (z-score),[11],-0.121
same,glycan array binding signal (z-score),[12],-0.105
same,glycan array binding signal (z-score),[13],-0.128
same,glycan array binding signal (z-score),[14],-0.134
same,glycan array binding signal (z-score),[15],-0.149
same,glycan array binding signal (z-score),Neu5Ac(a2-3)GalNAc,-0.136
same,glycan array binding signal (z-score),[16],-0.143
same,glycan array binding signal (z-score),[17],-0.144
same,glycan array binding signal (z-score),[18],-0.137
same,glycan array binding signal (z-score),[19],-0.077
same,glycan array binding signal (z-score),[20],-0.14
same,glycan array binding signal (z-score),Neu5Ac(a2-6)Gal,-0.138
same,glycan array binding signal (z-score),[21],-0.144
same,glycan array binding signal (z-score),Neu5Ac(a2-6)Gal(b1-4)Glc,-0.13
same,glycan array binding signal (z-score),[22],-0.136
same,glycan array binding signal (z-score),[23],-0.131
same,glycan array binding signal (z-score),[24],-0.138
same,glycan array binding signal (z-score),[25],-0.142
same,glycan array binding signal (z-score),[26],-0.145
same,glycan array binding signal (z-score),[27],-0.142
same,glycan array binding signal (z-score),[28],-0.135
same,glycan array binding signal (z-score),[29],-0.138
same,glycan array binding signal (z-score),[30],-0.131
same,glycan array binding signal (z-score),[31],-0.124
same,glycan array binding signal (z-score),[32],-0.129
same,glycan array binding signal (z-score),[33],-0.14
same,glycan array binding signal (z-score),[34],-0.123
same,glycan array binding signal (z-score),[35],-0.143
same,glycan array binding signal (z-score),[36],-0.133
same,glycan array binding signal (z-score),[37],-0.126
same,glycan array binding signal (z-score),[38],-0.144
same,glycan array binding signal (z-score),[39],-0.123
same,glycan array binding signal (z-score),[40],-0.137
same,glycan array binding signal (z-score),[41],-0.068
same,glycan array binding signal (z-score),[42],-0.142
